From PubChem BioAssay AID686978 (National Center for Advancing Translational Sciences (NCATS), 2013)
Hit rate of the full screen: of about 420,000 compounds, about 64,000 (15%) were called active. Inconclusive results, whose numbers are uncertain, are shown with a selection of clear calls. Calls follow the shape of the dose curve; as a rule, active = well fitted inhibition curve with a large enough effect; inconclusive = small, poorly fitted or top-dose-only effect; inactive = flat fitted curve, though single readings scatter. Potencies of inconclusive entries are left out as doubtful fits.
% is scaled to controls: 0 for no effect and ±100 for the full control effect; potency is read from the fitted curve at half-maximal effect; tags tell the direction and shape of the fitted curve.

Assay: qHTS for Inhibitors of human tyrosyl-DNA phosphodiesterase 1 (TDP1): qHTS in cells in absence of CPT; also: nearly all actives have a fitted effect of over 55% in size
Details: DT40 Tdp1-/- hTDP1 cells, no CPT, ATP luminescence, 48 h; activity change, negative = growth inhibition: at 46.2 µM (top of the series) unless noted
In short: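 DT40 Tdp1-/-;hTDP1 cells, no CPT (DMSO vehicle only), 400 cells/well; compounds pin-transferred; ≥48 hr, 37 °C; CellTiter-Glo 30 min RT dark, luminescence read.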
In the case of COc1ccc(CNC(=O)C(c2cccc(C)c2)N(C(=O)c2csnn2)C2CC2)cc1 (centres undefined), the Potency is reported as inconclusive [inhibitor, single point]. For O=C(c1ccco1)N1CCN(C(=O)c2ccc(CS(=O)c3ccc(Br)cc3)o2)CC1 (centres undefined), the Potency was inconclusive [inhibitor, single point]. For CCOC(=O)N1CCN(c2c(NCc3ccccc3Cl)c(=O)c2=O)CC1, the Potency was active: 29.1 µM. In the case of O=c1c2ccccc2nc(SCc2nc3ccccc3s2)n1Cc1ccco1, the Potency is reported as active: 18.4 µM. For O=C(CSc1c2c(nc3ccc(Cl)cc13)CCCC2)NCc1ccco1, the Potency was active: 18.4 µM. For O=C(CSc1nnc(-c2ccc(O)cc2)o1)Nc1ccccc1, the “activity change, negative = growth inhibition” value was inactive: -19.8%. For Cn1cccc1C1C=C(c2ccc(C(C)(C)C)cc2)Nc2ncnn21 (centres undefined), the Potency was active: 23.1 µM. In the case of O=S(=O)(c1ccc(F)cc1)n1ccc(-c2cccc(OCc3c(F)cccc3Cl)c2)n1, the Potency is reported as inconclusive [inhibitor, single point]. In the case of Cc1ccc(C(=O)N/N=C/C=C/c2ccccc2)o1, the “activity change, negative = growth inhibition” value is reported as inactive: -12.5%. In the case of COc1ccc(Br)cc1CNC(=O)CCCn1c(=O)c2cccn2c2cccnc21, the Potency is reported as active: 18.4 µM. In the case of Cc1cccc(CC(Cc2nc3ccccc3[nH]2)c2nc3ccccc3[nH]2)c1 (centres undefined), the Potency is reported as inconclusive [inhibitor, single point]. In the case of CCN(CC)CCCNc1oc(/C=C/c2ccccc2)nc1C#N, the Potency is reported as inconclusive [inhibitor, single point]. In the case of O=c1c2ccccc2nc(/C=C/c2ccc([N+](=O)[O-])cc2)n1CCCO, the Potency is reported as active: 20.6 µM. For Fc1ccc(CNc2nc(-c3ccco3)cc(C(F)(F)F)n2)cc1, the Potency was inconclusive [inhibitor, single point]. With COc1ccc(C2C=C(c3ccc(C)cc3)Nc3c(C(=O)Nc4ccccc4)cnn32)cc1 (centres undefined) the Potency was inconclusive [inhibitor, single point]. With CC(C)Cc1cc(C(=O)N(C)C2CCCN(Cc3ccccc3F)C2)n(C)n1 (centres undefined) the Potency was inconclusive [inhibitor, single point]. In the case of CCCS(=O)(=O)c1c(S(=O)(=O)CCC)c2cc(C(C)(C)C)ccn2c1C(=O)c1ccc(OC)c(OC)c1, the Potency is reported as inconclusive [inhibitor, single point]. For Cc1cccc(N2CCN(C(=O)c3ccc4ncsc4c3)CC2)c1C, the Potency was active: 5.17 µM. With COc1ccncc1-c1ccc(C2=CC(=O)CC(C)(C)C2=O)cc1 the Potency was inconclusive [inhibitor, single point]. With COc1ccccc1CNC(=O)c1cc2sccc2n1Cc1ccc(F)cc1 the Potency was active: 23.1 µM. For O=C(CSc1nnc(-c2cccc(F)c2)o1)Nc1nncs1, the “activity change, negative = growth inhibition” value was inactive: 0.834%. With Cc1ccc(C)c(NS(=O)(=O)c2ccc(-c3cnc(C4CC4)o3)cc2)c1 the Potency was active: 0.0052 µM. In the case of C[C@H](CO)N1C[C@H](C)[C@@H](CN(C)C(=O)Nc2ccc(C(F)(F)F)cc2)Oc2ccc(NS(=O)(=O)c3cn(C)cn3)cc2C1=O, the “activity change, negative = growth inhibition” value is reported as inactive: -13.8%. In the case of COc1ccc(/C=N/n2cnc3c([nH]c4ccc(C)cc43)c2=O)cc1CN1CCCC1, the Potency is reported as active: 7.31 µM. With CC(C)Cn1c(SCC(=O)N2CCN(S(=O)(=O)c3ccccc3)CC2)nc2ccccc21 the Potency was inconclusive [inhibitor, single point]. With COc1cccc2cc(C(=O)C3=C(O)C(=O)N(CCN4CCOCC4)C3c3ccc(C(C)(C)C)cc3)oc12 (centres undefined) the Potency was inconclusive [inhibitor, single point]. For Cc1nnc(Sc2nc3c(c(=O)n(C)c(=O)n3C)n2Cc2ccccc2Cl)s1, the Potency was inconclusive [inhibitor, single point]. In the case of O=C(Cn1ncc2c3ccccc3n(Cc3ccccc3)c2c1=O)N1CCCCCC1, the Potency is reported as inconclusive [inhibitor, single point]. In the case of Cn1cc(CN2C[C@H]3CC[C@H]2C3)c(-c2ccccc2F)n1, the Potency is reported as inconclusive [inhibitor, partial curve]. With Cc1ccc(Oc2nc(-c3cccnc3)nc3ccccc23)c([N+](=O)[O-])n1 the Potency was inconclusive [inhibitor, partial curve, poor fit]. For COc1ccc(S(=O)(=O)N2C[C@H]3CON(C)[C@H]3C[C@H]2c2ccc(-c3cccc(F)c3)cc2)cc1, the Potency was inconclusive [inhibitor, single point]. In the case of COc1ccccc1NC(=O)Cn1c(=O)n(-c2ccccc2Cl)c(=O)c2sc3ccccc3c21, the Potency is reported as active: 10.3 µM. For COCCCn1c(SCc2ccccc2F)nc2c(sc3ccccc32)c1=O, the Potency was active: 14.6 µM. With Cc1cccc(C(=O)N2CCN(CCNC(=O)C(=O)Nc3ccc(F)cc3)CC2)c1 the Potency was inconclusive [inhibitor, single point]. For O=C(CSc1nc2ccccc2c(=O)n1-c1ccccc1F)Nc1ccc2c(c1)CCC2, the Potency was inconclusive [inhibitor, single point]. With O=S1(=O)CCOCCCN1Cc1cccc(Cl)c1 the Potency was inconclusive [inhibitor, partial curve, poor fit]. With CNC(=O)CN(C1CCCCC1)S(=O)(=O)c1ccc(F)cc1 the “activity change, negative = growth inhibition” value was inactive: -7.03%. In the case of C[C@H](CO)N1C[C@H](C)[C@@H](CN(C)CC2CC2)OCc2cnnn2CCCC1=O, the “activity change, negative = growth inhibition” value is reported as inactive: 1.13%. With COc1ccc(-n2nc(C(=O)NCC(=O)NC3CCCCCC3)c3ccccc3c2=O)cc1OC the Potency was inconclusive [inhibitor, partial curve]. In the case of O=C(Nc1ccccc1)C(=O)c1cn(CC(=O)N2CCCCC2)c2ccccc12, the Potency is reported as inconclusive [inhibitor, partial curve]. For Cn1c(N)c(C(=O)COC(=O)CCCc2nc3ccccc3s2)c(=O)n(C)c1=O, the Potency was inconclusive [inhibitor, partial curve]. For COc1ccc(S(=O)(=O)N(CC(=O)Nc2cccnc2)c2ccccc2OC)cc1, the activity change, negative = growth inhibition was inconclusive: -31.9% [inhibitor]. In the case of COc1ccc(NC(=O)c2ccc(-n3nc(C)cc3C)cc2)cc1OC, the Potency is reported as inconclusive [inhibitor, single point]. In the case of CCOc1cc2[nH]c(=S)n(CCCOC)c(=O)c2cc1OCC, the Potency is reported as inconclusive [inhibitor, single point]. With C=CCn1c(CSc2ccc(C)cc2)n[nH]c1=S the Potency was inconclusive [inhibitor, single point]. With CCc1cc(C(=O)N2CCN(c3ccccc3OC)CC2)sc1C the Potency was active: 16.4 µM. With COc1cc(OC)cc(-c2nnc(SCc3c(F)cccc3Cl)o2)c1 the Potency was active: 23.1 µM. In the case of COc1ccc(/C=C2\SC(=O)N(CCC(=O)N3CCCCC3)C2=O)cc1OC, the Potency is reported as inconclusive [inhibitor, single point]. With COc1ccc(-c2noc(C(C)n3nc(C)c([N+](=O)[O-])c3C)n2)cc1OC (centres undefined) the activity change, negative = growth inhibition was inconclusive: -31.3% [inhibitor]. For COc1ccc(CNC(=O)CCCCCn2c(=O)[nH]c3ccccc3c2=O)cc1, the “activity change, negative = growth inhibition” value was inactive: -3.19%. With CN(C)N=Nc1ccc(/C=C2\C=Cc3ccccc32)cc1 the Potency was inconclusive [inhibitor, single point]. For COc1cc(NC(=O)C2CCCN(S(=O)(=O)c3ccc4c(c3)oc(=O)n4C)C2)cc(OC)c1 (centres undefined), the Potency was inconclusive [inhibitor, single point]. With CCN(CC)C(=O)C1=C(C)N(Cc2ccccc2)C(=O)C(CC(=O)NCc2cccs2)C1 (centres undefined) the “activity change, negative = growth inhibition” value was inactive: -27.7%. In the case of COc1cccc(C2(CC(=O)N3CCCOc4c(cccc4OC)C3)CC(=O)N(C)C2=O)c1 (centres undefined), the “activity change, negative = growth inhibition” value is reported as inactive: -23.4%. For CCCCC(=O)N(C)c1c(CC)nc2c(OCc3ccc(Cl)cc3Cl)cccn12, the Potency was active: 9.2 µM. With Cc1cccc2nc(C(=O)Nc3cccc(C(=O)NC4CC4)c3)cn12 the Potency was inconclusive [inhibitor, single point]. In the case of O=C(CCC(=O)Nc1cccc(Cl)c1)N/N=C/c1cc([N+](=O)[O-])ccc1O, the Potency is reported as inconclusive [inhibitor, single point]. In the case of O=S(=O)(NCC1CCCN(Cc2ccccc2O)C1)c1cccc2cccnc12 (centres undefined), the “activity change, negative = growth inhibition” value is reported as inactive: 0.25%. For CCc1cc2c(=O)c(-c3nc4ccccc4n3C)c(C(C)C)oc2c(CN2CCN(C)CC2)c1O, the Potency was active: 11.6 µM. With COc1cc(NC(=O)COC(=O)Cn2cnc3c2c(=O)n(C)c(=O)n3C)cc(OC)c1 the “activity change, negative = growth inhibition” value was inactive: 24.5%. For O=C1C(=Cc2ccncc2)CCCc2ccccc21, the Potency was active: 20.6 µM. For N/C(=N\OC(=O)Cc1ccc([N+](=O)[O-])cc1)c1ccc([N+](=O)[O-])cc1, the Potency was inconclusive [inhibitor, partial curve]. In the case of O=C(NCCO)C(=O)NCC1OCCCN1S(=O)(=O)c1ccc2c(c1)OCCO2 (centres undefined), the “activity change, negative = growth inhibition” value is reported as inactive: -9.18%. In the case of CCOC(=O)c1[nH]c2ccccc2c1NC(=O)c1ccc(OC)c(OC)c1, the Potency is reported as inconclusive [inhibitor, single point]. For Cc1c(S(=O)(=O)Nc2ccc(Oc3ccccc3)cc2)c(=O)n(C)c(=O)n1C, the “activity change, negative = growth inhibition” value was inactive: -4.81%. For CCOC(=O)C1(CCOC)CCN(Cc2ccc(C3CCCCO3)s2)CC1 (centres undefined), the Potency was inconclusive [inhibitor, partial curve]. With COc1ccc(-c2csc(N(CC(C)C)C(=O)c3ccco3)n2)cc1 the Potency was inconclusive [inhibitor, single point]. For O=C(N/N=C/c1ccc2ncccc2c1)c1cc(-c2cccs2)nc2ccccc12, the Potency was active: 3.26 µM. With O=[N+]([O-])c1cc([N+](=O)[O-])c(Oc2c(Cl)cccc2Cl)cc1NN1CCCCC1 the Potency was inconclusive [inhibitor, partial curve, poor fit].
